This note sets out measurements from the supplement of paper PMC4723716.

± gives the uncertainty stated by the source. Whole data set: some 9,900 compounds, median “viability index relative to DMSO control” near 1, cut for the lowest 2% near 0.85. This is one part of the list.

This assay concerns Plasmodium falciparum NF54 stage V gametocytes. In words: viability index relative to DMSO control (fraction); higher = less gametocyte killing. The settings on record: 2.5 µM, library set: Broad Institute DOS, incubation time: 72 h. The procedure, abridged:
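Viability index is the count of red-stained particles in a well divided by the plate mean of solvent-only wells. Particles of 20–70 µm2 were counted in one imaged field per well after one to two hours with 3 µl of 2.5 µM MitoTracker Red CMXRos and 0.13% saponin. Before staining, P. falciparum NF54 stage V gametocytes in serum-free medium (0.75% gametocytemia, 1.25% hematocrit, 10 µl, 1,536-well plates) were kept with compound at 2.5 µM for 72 hr at 37°C under low oxygen.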
For `N#C[C@H]1[C@@H](c2ccccc2C2=CCCCC2)[C@@H](CO)N1C(=O)CN1CCOCC1`, the viability index is 1.12 ± 0.094.
For `O=C(C[C@H]1C[C@H]2c3cc(NC(=O)C4CCOCC4)ccc3O[C@H]2[C@@H](CO)O1)NCCN1CCCCC1` the value was 1.1 ± 0.066.
`O=C(NCC1CCCCC1)[C@@H]1[C@@H](CO)[C@@H]2Cn3c(ccc(-c4ccc(F)cc4)c3=O)[C@H]1N2` showed a viability index of 1.04 ± 0.012.
The value for `COc1ccc2c3c([nH]c2c1)[C@H](CO)N(C[C@]31CCN(CC2CCCC2)CC1)S(C)(=O)=O` was 0.875 ± 0.17; that for `C[C@H]1CN([C@@H](C)CO)S(=O)(=O)c2ccc(C#CC(C)(C)O)cc2O[C@H]1CN(C)Cc1ccc(F)cc1` was 1.07 ± 0.016.
On to `COc1ccc2c3c([nH]c2c1)[C@@H](CO)N(C[C@]31CN(C1)C(=O)CN1CCOCC1)C(C)=O`, for which the viability index was 0.99 ± 0.027.
For `C/C=C/c1ccc([C@H]2[C@@H](CNC(C)=O)N(C(=O)Cc3ccncc3)[C@H]2CO)cc1` the value was 0.983 ± 0.1.
For `Cc1ccc(S(=O)(=O)NCC[C@@H]2CC[C@@H](NC(=O)c3cccnc3)[C@H](CO)O2)cc1` the value was 1.03 ± 0.12; for `COc1ccc(NC(=O)N(C)C[C@@H]2OCCCC[C@@H](C)Oc3ccc(NC(=O)c4ccncc4)cc3C(=O)N([C@H](C)CO)C[C@H]2C)cc1`, 1.14 ± 0.022.
The value for `COc1ccccc1NC(=O)N[C@H]1CC[C@@H](CCNS(=O)(=O)c2ccc(Cl)cc2)O[C@@H]1CO` was 0.977 ± 0.046; that for `Cc1ccccc1-c1ccc([C@@H]2[C@@H]3CN(Cc4cncnc4)C[C@H]2N3)cc1` was 1.08 ± 0.018.
Turning to `C[C@H](NC(=O)C[C@H]1CC[C@H]2[C@@H](COC[C@H](O)CN2C(=O)Nc2cccc(Cl)c2)O1)c1ccccc1`, the viability index amounted to 1.07 ± 0.082.
The value for `CO[C@@H]1CN(C)C(=O)c2cc(NS(=O)(=O)c3ccc(Cl)cc3)ccc2OC[C@H](C)N(C(=O)NC(C)C)C[C@H]1C` was 1.06 ± 0.04.
For `C[C@H]1CN([C@@H](C)CO)C(=O)c2cc(C#Cc3ccccc3)cnc2O[C@@H]1CN(C)C(=O)c1ccccc1` the value was 0.919 ± 0.071.
The value for `CN1CCN(C(=O)C[C@H]2CC[C@@H]3[C@@H](COc4ccc(NC(=O)C5CCOCC5)cc4C(=O)N3C)O2)CC1` was 1.149 ± 0.0076; that for `COc1ccc(S(=O)(=O)N2C[C@H](O)COC[C@@H]3O[C@@H](CC(=O)N[C@H]4CCN(Cc5ccccc5)C4)CC[C@H]32)cc1` was 0.998 ± 0.093; that for `C[C@@H]1COCc2cnnn2CC[C@@H](Cc2ccccc2)C(=O)N1` was 0.969 ± 0.037.
The compound `C[C@@H]1CN([C@H](C)CO)C(=O)c2cc(NS(=O)(=O)c3cccs3)ccc2O[C@@H]1CN(C)S(=O)(=O)c1ccc(Cl)cc1` yielded a viability index of 0.991 ± 0.095.
The value for `O=C(C1CCCCC1)N1CC2(C1)[C@H](c1ccccc1)[C@H](CO)N2CCC(F)(F)F` was 1.14 ± 0.032.
